# The list shows a part of the results.
# Test system: PfHDP1 homeodomain (GST-tagged)
# Test: gcPBM binding intensity (ln(normalized median fluorescence intensity)); higher = stronger DNA binding
# Procedure, shortened: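 Plasmodium falciparum DNA-binding domains carrying a GST tag were expressed in E. coli and applied for 1 h, at about 25 μg on average, to an Agilent 4 × 180k array. The array held primer-extended double-stranded 36-bp intergenic genomic probes together with negative controls, and binding took place in 1× PBS with 1% milk, 0.2 mg/ml BSA, 0.5% salmon testes DNA and 0.03% Triton X-100. An Alexa488 anti-GST antibody detected bound protein, and the array was scanned at 488 nm. Binding intensity is taken as the highest Masliner-normalised natural-log median intensity across replicate spots of either probe orientation.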
row,Sequence,gcPBM binding intensity (ln)
1,TTTTTTTTTTTTTTTTGTACTCATACATACTATTAT [XGTACX_site989],6.51
2,GTACACATATATATATATATATATATATATATATAT [CACACA_negctrl_site800],9.49
3,TATGTCCATATTTCCACACACATATTATTTTTATAT [CACACA_site3798],6.94
4,ATAAAAAAATAAATAACACACAAAATTACACGAAAA [CACACA_site3620],6.92
5,TATTAAAAAATTATATGTACACATTTGTTATATACA [XGTACX_site2232],6.33
6,TTCTTTATATATGTTCGTACATATTATTATAATACA [XGTACX_site1549],7.07
7,AATTAAAGGAATTACAACTTTGCAAGCGCAACATAA [CACACA_negctrl_site1411],6.78
8,ATTTCTTCTTTTTTTGTGAAACTGGAATATATATAT [XGTACX_negctrl_site527],7.42
9,TATATATATTATTATGCATGTAATAAAACAAATAAT [TGCATGCA_site625],6.83
10,ACGTTACATACATATACACACACATATATATATATA [CACACA_site8203],9.27
11,GATGTTTCTATTTTAGTGCATTTTAAATAAATAAAT,9.22
12,GGTGGTGGTGGGTGGGTGCTTCTATTATTATATTAT [GTGCAC_site9391],7.17
13,ATATATATTTTAATAACACACATATATTATATTATA [CACACA_site4387],6.42
14,CTTAGGTGTTCATAGAGTACAAATAAAAAAATAAGA [XGTACX_site2294],6.58
15,TCATTCTAAATATAAACACACATAAATAAATACATT [CACACA_site5788],6.57
16,TTTTTATTATTTTAAAGTACTCTTTAGTAATTCCCT [XGTACX_site5863],6.13
17,AAAAAACATACATACACACACATAAATATTTATATT [CACACA_site7300],6.79
18,CACAGATAAATTAACACACACACACCGATATATATA [CACACA_site6049],7
19,AATATTTCTTTAATTTGTACATATAAGGGAAAATAA [XGTACX_site6221],6.58
20,TTTTATTAATATTGCATGCACACTATATAATAATTG [CACACA_site1049],9
21,CGGAAAAATTAAAGCACACAAAAAAAAATAAAAAAA [CACACA_site1133],6.31
22,ATATATATTTTTATAACACACAATGATGTACATTAC [CACACA_site1076],6.7
23,TTTGTGCTTATCCTAACACACACAACATATAAGAAA [CACACA_site9091],6.73

row,Sequence,gcPBM binding intensity (ln)
1,TTATATATACCATAATGTACTCTATTATATAAAAAA [XGTACX_site7464],6.6
2,TGTGTAGCTAGGGGGTTGCTAATTTTTGTTTTGACC [CACACA_negctrl_site634],7.12
3,AGAAAAAACAAAAGAGAAATGAAAAAAAAAAAAAAA [XGTACX_negctrl_site482],6.08
4,TAAAATAATATTTATGTGCACATATAATTATTAATT,10.7
5,ATATAGATCTATAATACACACTTATGAAATGTCTAA [CACACA_site6946],6.33
6,TTGTTTCCGATGAAAGAAAGGAAATTATAATATATC [GTGCAC_negctrl_site516],6.53
7,GTCTCCTTTATTTTTGGTACAGATAAGATAAAAGGA [XGTACX_site1591],6.46
8,AATCAAAATATATCTACACACATTTAAGTAACCCAT [CACACA_site5846],6.56
9,TATAACATTATTTTGTGTACACATTCGGTTATATTA [XGTACX_site6310],7.79
10,GTGTTCATATATAGCCGTACATATGTCTTATGAACG [XGTACX_site5647],6.65
11,ATTATCAAAAAAAAAAAAAAAAAAAAAAAAAAAAAA [CACACA_negctrl_site1118],6.32
12,TACCTTATATTATATACACACATATAATATAATATA [CACACA_site1328],7.09
13,GATTCATTTCGTAATACACACAACAAATATTTCAAA [CACACA_site1772],6.86
14,AATGTAAATAAGTGTACACATATATAATACATACAT [CACACA_site4938],6.85
15,TGAGAATAAAAAAAAGGGATTATTAGATTTCTCCTT [TGCATGCA_negctrl_site326],5.62
16,TTATGTTGCGAGTTCTTAAGATATAAAAAATTCTTC [GTGCAC_negctrl_site45],6.31
17,ATCATAACTTGATACGCACACGTTATATAAATAAAA [CACACA_site4955],6.73
18,AAAAAAATAAGGTGCACACAAAAAAAAAAAAAAAAA [CACACA_site812],9.95
19,AAGACAAATTGTGACACACACAAAAAAAAAAAAAAA [CACACA_site3727],6.09
20,TATTGGATCACACAAAAATGTATAAATAAATAGAAA [TGCATGCA_negctrl_site490],6.17
21,ATTCAATAAACGTATTGTACAAAAGAACGATATATT [XGTACX_site2533],6.65
22,TATATATATATATTCACACATAAGATGAATAAAGTG [CACACA_site4225],9.09
23,ACCATAACATGAATTACAGGAATTGAAAATGTTCCA [CACACA_negctrl_site649],6.1

row,Sequence,gcPBM binding intensity (ln)
1,TTCTTTATTTTTTCTACACACATTAGATATTCAAAG [CACACA_site7624],6.98
2,CAAAATTAATAAGTCACACACACATCTATAATATAT [CACACA_site6519],6.69
3,GGTTACATTTTATTTTGTACATAAAAATTTTTATTT [XGTACX_site218],6.79
4,GTATTATATATAAAAGTGCATATTTTTTTCCCTTAC,8.14
5,TGTTTATAAATATAAAAAAATATATATATATATTAT [GTGCAC_negctrl_site247],6.5
6,ATTTTATAATTTATATCACACACATATATATATAGT [CACACA_site7885],6.73
7,CATATTATTTAAACATGTACTCACATATAAATATAA [XGTACX_site6096],6.31
8,TAAAAAAAAAAAATGTGTACATATTATATATATCTT [XGTACX_site2615],6.08
9,TTTTTTATTATTATGTGTACGAATATGTGCATATAA [XGTACX_site1364],9.93
10,TATAACAAGTAATGTTGTACATTATATTATGTAATA [XGTACX_site2769],6.07
11,ATGAGTATACTAAGAACACACAAGTTACTTGGTGTT [CACACA_site4981],6.42
12,GTTACACAAACAAACACACACACACGCACGCACAAA [CACACA_site7191],7.87
13,TTTTTTCTCTATATATGTACATATAAAAAATATATC [XGTACX_site6382],6.8
14,AATACACGCAAACACACACACACACCCACATATATA [CACACA_site638],7.47
15,ATATATAATATATGTGGTACGCAAAATATTATATTA [XGTACX_site4969],6.3
16,TTATATATAAATGAAAGTACAAAACAGGAAAGAATA [XGTACX_site1076],7.66
17,AATGATATATTATAAACACACAAAGATGGATATATA [CACACA_site7349],6.42
18,GAACATTTCACATGGTGTACTCTCTTTTTCAAATAA [XGTACX_site1632],6.21
19,TTTATATTATAATATAATAATGATCTTAATTTTTTT [XGTACX_negctrl_site100],6.15
20,TCAATATACCAAAAATGTACAAAAAATAAACAATAT [XGTACX_site8251],7.19
21,TTTATTTTACAAAAAAGTACAAGAAGAAATATCAAT [XGTACX_site7812],6.57
22,ATATTTAGAATGTTCCTACACACCAAATTTAAGTGG [CACACA_site2346],6.42
23,TATTAAAAGTAAAAAACACACATGGATAAATACATA [CACACA_site6048],6.54

row,Sequence,gcPBM binding intensity (ln)
1,TGTCCCCCTTTCTATGCACACTTTAAATTATTCAAA [CACACA_site4200],9.8
2,ATTAATCCAAATGAATGTACTTAATAATGTAATTAT [XGTACX_site8946],5.83
3,AAAAAAAAAATACATACACACACACCCACCCATATA [CACACA_site9187],7.4
4,ATATATATTATATGCACACTTATATTTCATTAGATT [CACACA_site2599],10.3
5,TATTATTTATTATATGCACACATCGAACTATTATTT [CACACA_site2544],9.78
6,TATTCGAAAGAATAGGCATGCAAACATATCTTATTA [TGCATGCA_site147],6.32
7,ATATAATATTAGTGCACACACAAAAATGTACTAAAC [CACACA_site632],10.4
8,AAACATATAAATCACGGTACACATTATTGAAAGTGT [XGTACX_site2966],6.41
9,TTCTATATTATATATGCATGTGTTATTCTTATTTTC [TGCATGCA_site92],6.81
10,ATAAAGAAACATATATGTACTTATATATATATATAT [XGTACX_site5625],9.18
11,TTATAATTTTTTTTTGCATGTGGGTTTTTTTTTGTT [TGCATGCA_site968],6.72
12,TTTCAATACTGAAACTGTACTTGTTTTACTTCTATT [XGTACX_site5924],6.37
13,CGAAATCATATGTACACACACATATATATATATATA [CACACA_site2151],9.44
14,TATATATATGTATACACACATACAAATATGTAAAAA [CACACA_site3720],6.7
15,AAATAAAGCACACCGACACACACATATATATATATA [CACACA_site8256],9.21
16,ATTGTATCTGTATATGCACACAATATCTGTACTTCT [CACACA_site5445],10.1
17,TCATCATATTATATATGTACATATATAATAATTTAT [XGTACX_site1625],6.57
18,AAATAATTAAAAAAAAGTACACATGTGACTACATAT [XGTACX_site8767],6.88
19,ATTGAAAAATAAAAATGTACACATGTAGCATACCAT [XGTACX_site3275],7.17
20,AATATATCGCATAGTTGTACAGAATTTTTACTTTTA [XGTACX_site8192],6.33
